# Source: ChEMBL document CHEMBL4888484, “Replenishing the malaria drug discovery pipeline: Screening and hit evaluation of the MMV Hit Generation Library 1 (HGL1) against asexual blood stage Plasmodium falciparum ,using a nano luciferase reporter read-out” (2022)
# The whole screen tested about 150,000 compounds, of which about 540 (0.36%) showed an effect of 50% or more. Some of the results follow.
# Tested on: Plasmodium falciparum
# Experiment: Primary screen in NF54 nanoGlo assay, in single point, at 2uM, 72h; a lower Z score goes with more inhibition
# Type: functional, Erythrocyte
# Conditions: timepoint 72 hour
Compound,% Inhibition,Z score
COc1ncc(CN(Cc2cccnc2)Cc2ccc3c(c2)OCO3)cn1,25%,-3.2
COC[C@@]1(C)CN(Cc2cc(C(=O)O)sc2C)CCO1,-4%,0.67
O=C(Nc1cccc(C(F)(F)F)c1)N[C@H]1CC(=O)N(c2ccc3c(c2)OCCO3)C1,10%,-1.4
CCOCCC(=O)N1CCC2(CC1)c1nc[nH]c1CCN2C(=O)C1CCC1,29%,-3.7
COCCN(Cc1cccs1)C[C@@H](O)Cc1ccccc1,10%,-1.53
CN(Cc1ccccc1)c1ncccc1CNc1ccc(C#N)cn1,-8%,1.5
CCCNC(=O)c1cnc(-c2cccc(C)c2)nc1N(C)C1CCCCC1,-9%,1.73
Cc1ccc(-n2nnnc2N2CCc3sccc3C2)cc1,-13%,1.45
O=C(COc1cccnc1)N1CCc2ncnc(N3CC=CC3)c2CC1,-15%,1.32
CCc1nn(C)c(Cl)c1CN1CC(OC)CC1c1ncc[nH]1 (configuration not stated),-7%,0.66
COc1ccc(Cl)c(N(C)Cc2cnn(C)n2)c1,3%,-0.7
Cc1n[nH]c(C)c1CCc1nncn1-c1cccc(F)c1,-11%,2.06
C[C@@H](Cn1cncn1)NC(=O)c1oc2ccccc2c1CN(C)C,-18%,3.39
NC(=O)CCn1ccc(NC(=O)c2ccc(-c3ccccc3F)o2)n1,-14%,2.44
C[C@H]1CCc2n[nH]c(C(=O)NCCc3cnn[nH]3)c2C1,-4%,0.51
CCc1nccn1CCC(=O)N1CCC[C@H](Cc2nc3ccccc3[nH]2)C1,-9%,1.15
O=C(N[C@H]1C[C@H](c2ccccc2)C1)N1CCC[C@H](Cn2ccnn2)C1,-10%,1.06
CC(C)S(=O)(=O)N(C)C(=O)CCCc1ccccc1,-8%,1.1
CCCn1nc(-c2ccco2)nc1CCN1CCCC1=O,-6%,0.73
O=C(CCc1ccc(F)cc1)N1CCCC1CC(O)c1ccco1 (configuration not stated),-7%,0.74
CC(C1CCCCN1Cc1nccn1C)N1CCCS1(=O)=O (configuration not stated),5%,-0.94
COc1ccccc1-c1nc2n(n1)C1(CCCCC1)[C@@H]1CCCC[C@@H]1N2C(=O)c1ccco1,-11%,1.84

Compound,% Inhibition,Z score
c1ccc([C@H]2CCN(c3cnccn3)C2)nc1,-5%,0.6
CC[C@H](NS(=O)(=O)N1CCC(C)CC1)c1nc(C)c(C)s1,-2%,0.26
O=C1NCCCc2[nH]c(-c3nnc4ccccn34)nc21,-18%,1.73
OC[C@H]1CN(c2nccc3ccc(F)cc23)CCC1(F)F,-11%,1.07
O=C1NCCN(Cc2ccc(F)cc2)C1=O,6%,-0.75
COc1cccc(CN2CCc3c(cc(C(=O)Nc4ccc(C)cc4C)n3C)C2)c1,2%,-0.34
CC(C)CCC(=O)N1CCOc2ccc([C@@](C)(O)CN(C)C)cc2C1,9%,-1.19
CCCNC(=O)N1CCCN(c2nc(C)nc3c2cnn3-c2ccc(C)cc2C)CC1,-8%,1.31
Cc1ccsc1-c1ccc(C(=O)N2CC[C@@]3(O)CCNC[C@H]3C2)cc1,-9%,1.32
CCOc1ncccc1-c1ccc2ncsc2c1,-14%,2.74
Cc1cnc(C(=O)Nc2cccc(-c3ccc4c(c3)CCO4)n2)cn1,-10%,1.56
Cc1cccc(C(=O)NCCOc2ccc3c(c2)OCO3)n1,-14%,1.27
CC1(C)CC2CN(C(=O)Cc3ccccc3)C(C)(C2)C1 (configuration not stated),-16%,2.18
O=C(N[C@@H]1COCC[C@@H]1OCC1CCC1)c1cncc(Cl)c1,-22%,4.26
Cc1ocnc1C(=O)NCCc1c(C)n2c3c(cccc13)CCC2,-16%,1.47
C=CCc1cc(C(=O)N2CC[C@H](O)[C@@H](O)C2)ccc1OC,15%,-1.94
OC1=Nc2nc(N3CCOCC3)sc2[C@@H](c2cccnc2)C1,34%,-3.82
Cc1ccccc1-c1nnc2c3ccccc3nc(N3CCN(C(=O)Cc4ccc(F)cc4)CC3)n12,-8%,0.97
CC(C)c1ncn(CC(=O)N2c3ccccc3C[C@@H]2C)n1,-18%,2.54
CCNc1ccc(Cl)cc1C(=O)N[C@H](C(=O)NC)C(C)C,-5%,0.44
CN1CCCN(CC(=O)NC(c2ccccc2)[C@H]2C[C@@H](O)C2)CC1 (some centres not stated),-10%,1.25
Cc1nnc2ccc(N3CCC(n4nc(C5CC5)ccc4=O)CC3)nn12,0%,0.06

Compound,% Inhibition,Z score
COc1ccc(Cl)cc1C(O)CNC1CCCn2ccnc21 (configuration not stated),2%,-0.34
COc1cccc(CNC(=O)N2CC3(CCC3)[C@H]2c2ccccc2)n1,-7%,0.99
CN1CCCC(CNc2nccnc2C#N)C1c1cccs1 (configuration not stated),-4%,0.67
COC1(CNC(=O)c2cnnc3ccccc23)CCC(C(F)F)CC1 (configuration not stated),-12%,1.39
CC1=C(C)CN(S(=O)(=O)c2cnn3ccccc23)CC1,-9%,1.06
CCc1cnc(NC(=O)N2CCC[C@@H]2CO)s1,-7%,1.32
CC1CCCCC1NC(=O)c1cccc(-n2cnnn2)c1 (configuration not stated),-2%,0.21
CC(C)NC(=O)N(Cc1ccccc1)C[C@H]1CC(c2ccc(N(C)C)cc2)=NO1,-7%,1.18
CS(=O)(=O)CCC(=O)NC1(c2ccccc2)CCCC1,9%,-1.29
Cc1nc(C(=O)N2CCC[C@H]3CN(C(=O)OC(C)(C)C)C[C@H]32)c(C)o1,-9%,1.54
O=C(CNC(=O)C1CCCCC1)NC1CCCCC1,-9%,1.42
N#CCC(=O)Nc1ccc(OC(F)(F)F)c(Cl)c1,-12%,1.8
O=C(C1=CCN(Cc2ccccc2F)CC1)N1CCN(c2ccccc2F)CC1,-12%,1.58
O=S(=O)(C[C@H]1CCC1(F)F)N1CCCO1,-2%,0.14
C[C@@H](C1CC1)N(CC(=O)Nc1ccc(F)cc1F)C1CC1,-12%,1.76
Cc1ccc(C)c(NC(=O)N2CCC(N3CCN(Cc4ccccc4)C(=O)C3=O)CC2)c1,-16%,1.5
Cc1cc(=O)n(CC(=O)N(C)c2cccc(Cl)c2)c(Nc2ccc(F)c(C)c2)n1,-10%,1.28
Fc1ccccc1-c1noc(C2CN(C3CCOCC3)C2)n1,29%,-3.33
COCCN1C(=O)[C@@H]2CC[C@H]1CN(c1nc(N(C)C)nc(C)c1C)C2,-8%,1.5
CC1(C)Cc2cccc(N3C(=O)N[C@@H](CCF)C3=O)c2O1,-9%,0.95
C=CCC[C@@H](CN1CCCC1)Oc1ccc(C(=O)NCC)cn1,2%,-0.28
COc1ccc(CNC(=O)C[C@H]2CCCCN(Cc3ccccc3)C2=O)cc1,-8%,1.62

Compound,% Inhibition,Z score
Cc1nc2c(c(NCc3cc(-c4ccccc4F)no3)n1)CCNCC2,-9%,1.76
Cc1ccncc1C(=O)N1CCC(CCn2c(C)cnc2C2CC2)CC1,-3%,0.37
COc1ccccc1C1(CNC(=O)COc2ccc(Cl)cc2)CCOCC1,-35%,4.51
Cn1nccc1-c1ccccc1CN1CC(O)(C(F)F)C1,-4%,0.55
CCCN1CC2(CCN(C(=O)Cc3ccc(O)cc3)CC2)C[C@H]1C(=O)O,-13%,1.71
COC[C@]1(C(=O)Nc2ccc3c(c2)CCCN3C(C)=O)CCN(C(=O)OC(C)(C)C)C1,-2%,0.33
Cc1n[nH]cc1CN(C)C(=O)c1ccc(C#N)nc1,-8%,0.92
CC(C)N(CC(N)=O)C[C@@]1(C)CC1(Cl)Cl,-13%,2.1
Clc1cccc(-c2nc(-c3cccc4ccccc34)[nH]c2-c2ccccc2)c1Cl,3%,-0.41
CC(C)O[C@H]1CN(c2ncnc3c2Cc2ccccc2OC3)C[C@@H]1O,-8%,1.14
CC(=O)c1cc(C(=O)N(CC2CC2)CC(F)(F)F)ccc1C,4%,-0.6
Cc1cnc(-n2ncc(C(=O)N3CCN(C(C)C)CC3)c2C(C)C)nc1-c1ccc(F)cc1,-3%,0.64
CCc1c(C)nc(C)nc1N1CCC2(CCC(=O)N(Cc3cccnc3)C2)CC1,-10%,1.24
CNC(=O)[C@@H]1CN(C(=O)c2cc(-c3cc(C)ccc3C)n[nH]2)C[C@H]1CO,-4%,0.54
CNS(=O)(=O)Nc1ccc(NS(=O)(=O)c2ccsc2)cc1,1%,-0.13
CCC=C(C)C(=O)N1CC(C)OC(C)C1 (configuration not stated),-5%,0.5
CCOc1ccc(N2C[C@@H](C(=O)N3CCN(c4ccccn4)CC3)CC2=O)cc1,-5%,0.69
Cc1cnc(CNc2cccc(F)c2)nc1,0%,0
O=S(=O)(NCC#CCN1CCc2ccccc2C1)c1cccnc1,11%,-1.22
Cc1cc(-c2cc3c(c(OCC4(C)COC4)c2)OCCNC3)nc2cc(F)ccc12,-4%,0.77
